Read counts are not given, so values of variants with three or more changes are uncertain.
B1: LINE1-full (parent)
chain: UACGUAGGUGGUUUUCCCCUGAUAGUGCUAAGGGGGCCUGGAAGUUUGGACUGGGCAGAGCUCAACACAGCGUGGCAAAGUGGCUGUGGCUAGACUGCCUCUCUGGAUUCCUCGUCACUCAGCAGGGCAUCUCUGAGAGAAAUGCC

Variants of: B1
Experiment: self-cleavage, relative activity (ratio to wild type); higher = more cleavage; in vitro, sequencing; the parent is a self-cleaving ribozyme

Variant | self-cleavage
U100C C131A U134A | 1.4
G97A A107G U109C A138G | 0
U96A U112C A117U A142G | 0.07
A94G A124G U130A U134C U143C | 0
U100C A107G U109A | 1.88
U96A U115C G126A A138G | 0.07
C99U G122A U132C U143A | 0.46
G93U C128U U132C | 0.02
G97A U100C U134C | 0.21
U96A U100C U119C A142G | 0
C99A U104C U112C A138G | 0
U96C A107G U143C | 0.1
A92G U102C U119A | 0
U102C C118U A138G | 1.36
U96C U108A A136G | 0
U100A A136G A140U | 1.21
C98U U112A A117G U119C | 1.05
U91A U100C A140G | 0.68
U96C A121G U134C A140G | 0
U96A G106U A140G A141G | 0.02
A94G U109C A141G | 0.28
U100C A140U A142G | 2.46
A94U U96C C101U | 0.03
U100C U104A A107G | 2.73

Variant | self-cleavage
U100C A142G U143C | 0
U96C U115A A124G U130C A142G | 0.68
A94G U96G U134C | 0
U96C U109A U130C | 0.14
G93A U102C U108C U112C U130C | 0
U100C C116U A136G | 1.71
U104C C111U A141G | 2.74
C90U C120U A138G A142G | 0.12
U91C U96C U143C | 0.12
A92G U100C A141G | 0
U104A U119A C131U | 1.54
C95U A136G U143C | 0.42
G97A A140G A142G | 0.05
G93C U96C U100C | 0.04
U91A U134C A140G | 0.78
A94U G126A A140C | 0.29
C95U G114A A136G | 0.06
U100C U115C A140G | 0.77
U100A U115C U119A | 1.36
U104A U115C A136G | 0
A94G A129G A136G | 0
U96C U102C U132C | 0.73
U91C U100C A141G | 1.26
A92G U119A U132A | 0.22

Variant | self-cleavage
U91C U104A A140G | 0
A92U A94U U100C | 0.59
U96C U115A A141G | 0.13
U96C U115A A117G | 0.19
U96A C113U A117U U119C | 0
U102C G106U A129G | 1.92
U100C C110U U119C | 1.56
A92G U108C U132C | 0
A94U A129U A142G | 0.39
A94G A136G C145G | 0.34
U100A U112C A136G | 1.17
U102A U132C A136U | 1.66
U91A A92G U108C | 0.09
C95G U132C A142G | 0.05
C101A G114A A117G | 1.34
G93U U115C A121C U130C | 0.02
U100C A138G U143C | 2.3
U100C U132A A138G | 2.95
G93A C131U A136G A140G C145U | 0
U100C U119C A140G | 1.82
U104A U115A A129U A142G | 0.39
U104A U109G U143A | 0.27
U100C A121G A140G | 2.47
U96C U134C A141G | 0.03

Variant | self-cleavage
U91A A92G U104A | 0.13
U96A U130C C133A | 0.06
A92C A138G A141G | 0.18
U100C A141G A142U | 1.5
A94G C101A U108C | 0.33
U91A A94U U109A | 0.06
U91C A92U U143C | 0.37
U91A A141G G144A | 1.12
A92G C113U U119A | 0.15
A94G U115A A142G | 0.34
G97A U115C A136G A142U | 0.45
U96A U112C U115C | 0.2
U100C A124U A138G | 1.8
U100A A117G U134C | 0.31
U100A U102C A140U | 1.61
C99U U115C A121G | 0.95
A92G A117G U143C | 0
U91A G105U A107G C146G | 0.58
A92G C98U U102C | 0.02
A92U G114A U119C | 0.55
A94G A107U A129G | 0.19
A94G G126U A129C | 0.46
A92G G139A G144A | 0
U102C U115C U134A | 0

Variant | self-cleavage
A94G U115C U132C | 0
U102C U115C A124G | 0
C101A A129U U134C | 1.12
U102C U119C A142G U143C | 2.16
U102C G127A A140G | 1.14
U102C U115A C118U A121U A140U | 1.02
U100C A121U A136G | 1.82
U100A A117C A142G | 1.44
C95U U119C A124U | 0.26
U102A U109A A124C A129G | 1.84
U100A U108C U119A | 0.99
U100C G106A U112A | 1.93
A94G U109A U115A A136G | 0.27
U104C A107G U134A | 0
A92U U96C U108C A124G U143A | 0
U96A A117G U119C A142G | 0.21
A92C U96A A121G | 0
C95U U108A A121U A136U | 0.22
U96C U100C A121U | 0.48
U96C U104A U109A U112A A140C | 0.04
U91C A94G A140G | 0.16
U100C A124U U134C | 2.24
A94U U104C U132C | 0.96
A94G G125U A142G | 0.22

Variant | self-cleavage
A92G G93U A124U | 0.02
C99A U104C U130C | 0.28
U102C U108C A129U | 0
G97A G126U U132C A136G | 0.35
U91C A121U A141U | 1.42
A92G U119C A138U | 0
U91A A121U A124U | 0.61
C99A A138G U143C | 0.78
U104C A124G A142G | 0.88
U96G C98A U109C | 0.16
A92U U108C G125U | 0.97
A94U A138G U143A | 0.33
A92G U112A U132C | 0.06
C98U U104A C123U | 0.1
U91A U96C A138G | 0
U100C U104A A138U | 2.06
C101U G126A A140G | 2.45
A92G A117U A136G | 0.1
U91C U119C A138U U143C | 1.31
G93A U100C U108C G127U | 0
U102C G114U G144A | 1.47
U96G A117G U143C | 0
A94G G97A U102C C103A A141G | 0.11
A94U A117G U130C | 0.38

Variant | self-cleavage
A94U A107G A141G | 0.21
C99A A107G C120U | 0.72
U102A U108A A124G | 1.37
U96C G97A U115C | 0
C99U U104C A129U | 0.93
U100C U130A U132C | 1.28
C101U A136G U143C | 1.1
G93U U132C C146U | 0.03
U100A U130A A141G | 0.88
U100C U143C C145U | 1.47
A94G G105A G125A | 0.24
U100C U134G U143C | 1.35
U100C U130C U143A | 1.09
A92U A117G U119C | 0
U104A U132C U143C | 1.84
U91C U109C A140G | 0.46
A94G A124G A141G | 0.4
A94C U96C C98U | 0.05
U102C U115C C131U | 2.3
U100C U112C U115C | 2.16
U100C U112C U115A | 1.93
U96A U100C U104A | 0.04
C99U U108C A129G | 0.75

From the RNAGym collection of RNA variant scans (doi:10.7554/elife.90254)
